According to PubChem BioAssay (Tox21):
This list was built around the results that the source calls inconclusive (neither active nor inactive); the mix of calls is not that of the screen. A potency beside an inconclusive call is a rough fit, not a confirmed value. More than one record can exist for a structure, and the calls need not agree. Active and inactive are the calls of the source. Unless noted, calls come from the whole dose curve; as a rule, active = well fitted curve in the direction sought with a large enough effect in the repeat runs; inconclusive = weak or mixed curves; inactive = no such curve, though single readings can be large; an effect the other way counts as inactive or inconclusive.

Columns and labels:
[1] = molecular target: Aryl hydrocarbon receptor (Homo sapiens) (UniProt P35869); test: qHTS assay to identify small molecule that activate the aryl hydrocarbon receptor (AhR) signaling pathway (AID 743085); note: nearly all actives have a fitted effect of over 15% in size;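 for activation: HG2L7.5c1 human HepG2 liver cells with stably integrated DRE-driven firefly reporter; % is set by controls: 0 for no effect and ±100 for the full control effect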
Sequence of UniProt P35869 (P35869 whole entry, looked up): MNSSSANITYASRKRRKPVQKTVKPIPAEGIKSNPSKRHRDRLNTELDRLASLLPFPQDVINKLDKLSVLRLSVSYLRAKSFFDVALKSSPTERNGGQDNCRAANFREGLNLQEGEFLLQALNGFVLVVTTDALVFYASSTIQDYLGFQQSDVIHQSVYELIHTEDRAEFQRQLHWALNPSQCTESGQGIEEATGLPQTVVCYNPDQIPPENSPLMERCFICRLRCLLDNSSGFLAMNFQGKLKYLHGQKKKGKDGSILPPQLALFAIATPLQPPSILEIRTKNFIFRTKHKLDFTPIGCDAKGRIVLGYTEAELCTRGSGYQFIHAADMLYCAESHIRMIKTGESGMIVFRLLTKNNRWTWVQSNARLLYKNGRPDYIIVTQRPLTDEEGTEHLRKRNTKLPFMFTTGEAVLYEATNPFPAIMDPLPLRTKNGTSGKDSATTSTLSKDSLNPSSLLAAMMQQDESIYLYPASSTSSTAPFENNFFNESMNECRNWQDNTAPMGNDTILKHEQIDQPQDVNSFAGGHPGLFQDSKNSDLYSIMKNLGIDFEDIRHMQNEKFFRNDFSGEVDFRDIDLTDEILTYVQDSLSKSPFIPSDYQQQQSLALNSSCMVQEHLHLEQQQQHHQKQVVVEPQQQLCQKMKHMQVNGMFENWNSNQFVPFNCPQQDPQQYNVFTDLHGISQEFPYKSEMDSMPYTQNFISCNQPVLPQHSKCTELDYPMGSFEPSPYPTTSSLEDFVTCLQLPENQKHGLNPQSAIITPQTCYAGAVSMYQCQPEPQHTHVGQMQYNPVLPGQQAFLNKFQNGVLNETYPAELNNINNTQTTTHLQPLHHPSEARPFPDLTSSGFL
Outline: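 HepG2 cells (HG2L7.5c1) stably carrying a firefly luciferase reporter driven by 20 dioxin responsive elements were exposed to compound for 24 h at 37C after a 5 h settling period; luminescence rise (ONE-Glo) indicated activation.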

[2] = qHTS assay to identify small molecule that activate the aryl hydrocarbon receptor (AhR) signaling pathway - cell viability counter screen (AID 743086); note: nearly all actives have a fitted effect of over 45% in size;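 for viability change, negative = cytotoxic: HepG2 liver cells carrying the AhR DRE luciferase reporter; % is set by controls: 0 for no effect and ±100 for the full control effect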
Outline: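 HepG2-AhR-luc (HG2L7.5c1) cells, 4000/well, treated 24 h at 37 C with compound; viability measured as CellTiter-Fluor fluorescence after 30 min in the same wells as the luciferase read.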

[3] = molecular target: Peroxisome proliferator-activated receptor gamma (Homo sapiens) (UniProt P37231); test: qHTS assay to identify small molecule antagonists of the peroxisome proliferator-activated receptor gamma (PPARg) signaling pathway (AID 743191; calls by dose curve; note: nearly all actives have a fitted effect of over 30% in size; for ratio activity, negative = inhibition: % is set by controls: 0 for no effect and ±100 for the full control effect); settings: HEK293H PPARg-UAS-bla, beta-lactamase ratio, antagonist, 17 h; ratio activity, negative = inhibition: at 62.6 µM (top of the series) unless noted
Sequence of UniProt P37231 (P37231 whole entry, looked up): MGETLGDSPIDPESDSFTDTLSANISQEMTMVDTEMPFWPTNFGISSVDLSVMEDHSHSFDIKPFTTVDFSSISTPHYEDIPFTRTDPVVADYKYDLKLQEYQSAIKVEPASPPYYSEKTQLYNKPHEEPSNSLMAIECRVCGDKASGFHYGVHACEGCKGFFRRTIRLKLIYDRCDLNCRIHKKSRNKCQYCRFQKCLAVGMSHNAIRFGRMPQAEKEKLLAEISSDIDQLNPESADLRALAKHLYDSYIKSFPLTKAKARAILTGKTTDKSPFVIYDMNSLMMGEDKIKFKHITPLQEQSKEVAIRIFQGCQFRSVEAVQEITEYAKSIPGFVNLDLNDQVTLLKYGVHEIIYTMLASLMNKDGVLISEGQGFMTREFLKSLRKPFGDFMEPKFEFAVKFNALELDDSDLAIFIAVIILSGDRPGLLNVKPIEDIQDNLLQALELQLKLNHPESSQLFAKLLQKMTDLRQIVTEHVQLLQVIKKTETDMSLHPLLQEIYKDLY
Outline: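 GeneBLAzer PPARg UAS-bla HEK293H cells, 5 h post-plating, exposed to compounds 17 h at 37C. LiveBLAzer B/G FRET substrate added for 1 h at room temperature; beta-lactamase reporter read by fluorescence intensity.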

[4] = qHTS assay to identify small molecule agonists of the farnesoid-X-receptor (FXR) signaling pathway - cell viability counter screen (AID 743218); settings: FXR-bla HEK293T viability, CellTiter-Glo luminescence, 16 h; viability change, negative = cytotoxic: at 62.6 µM (top of the series) unless noted; note: nearly all actives have a fitted effect of over 45% in size
Outline: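 In GeneBLAzer FXR-UAS-bla HEK 293T cells, compounds act for 16 h at 37 C. Cell viability is then scored in the reporter wells by CellTiter-Glo, 30 min at RT, luminescence.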

[5] = molecular target: Bile acid receptor (Homo sapiens) (UniProt Q96RI1); test: qHTS assay to identify small molecule agonists of the farnesoid-X-receptor (FXR) signaling pathway (AID 743220; active = well fitted activation curve with a large enough effect in the signal ratio in the repeat runs, not every such curve was filed as active; inconclusive = weak or mixed curves, or effect the other way; the % refers to the signal ratio; for activation: % is set by controls: 0 for no effect and ±100 for the full control effect); settings: HEK293T FXR-UAS-bla, beta-lactamase FRET ratio, 16 h; activation: at 62.6 µM (top of the series) unless noted
Sequence of UniProt Q96RI1 (Q96RI1 whole entry, looked up): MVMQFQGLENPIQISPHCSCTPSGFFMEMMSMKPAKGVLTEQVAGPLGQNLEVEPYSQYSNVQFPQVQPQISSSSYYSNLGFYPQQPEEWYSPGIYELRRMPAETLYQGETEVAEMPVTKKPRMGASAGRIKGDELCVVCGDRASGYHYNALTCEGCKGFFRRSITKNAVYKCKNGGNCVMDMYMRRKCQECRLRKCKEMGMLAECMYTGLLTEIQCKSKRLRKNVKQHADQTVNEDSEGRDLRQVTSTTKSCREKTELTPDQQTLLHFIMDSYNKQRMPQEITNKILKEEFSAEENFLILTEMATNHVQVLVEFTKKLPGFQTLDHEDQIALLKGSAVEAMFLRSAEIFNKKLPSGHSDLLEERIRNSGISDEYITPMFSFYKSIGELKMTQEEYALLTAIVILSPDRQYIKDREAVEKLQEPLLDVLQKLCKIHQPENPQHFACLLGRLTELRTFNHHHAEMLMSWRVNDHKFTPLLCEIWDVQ
Outline: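 Beta-lactamase reporter under UAS control in GeneBLAzer FXR HEK 293T cells (5000/well) measured with LiveBLAzer FRET substrate after 2 h at room temperature. Compound exposure lasted 16 h at 37C.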

[6] = molecular target: Peroxisome proliferator-activated receptor gamma (Homo sapiens) (UniProt P37231); test: qHTS assay to identify small molecule agonists of the peroxisome proliferator-activated receptor gamma (PPARg) signaling pathway (AID 743094; active = well fitted activation curve with a large enough effect in the signal ratio in the repeat runs, not every such curve was filed as active; inconclusive = weak or mixed curves, or effect the other way; inactive = no such curve, though single readings can be large or run the other way; the % refers to the signal ratio); settings: HEK293H PPARg-UAS-bla, beta-lactamase FRET ratio, 17 h; activation: at 57 µM (top of the series) unless noted
Outline: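 Stably transfected HEK293H cells (GeneBLAzer PPARg UAS-bla) were incubated with test substances for 17 h at 37C after a 5 h pre-incubation; beta-lactamase activity was then detected by FRET substrate fluorescence.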

[7] = qHTS assay to identify small molecule antagonists of the peroxisome proliferator-activated receptor gamma (PPARg) signaling pathway - cell viability counter screen (AID 743194); settings: PPARg-bla HEK293H viability, CellTiter-Glo luminescence, 17 h, co-treated with 50 nM rosiglitazone; activity change, negative = cytotoxicity: at 62.6 µM (top of the series) unless noted; note: nearly all actives have a fitted effect of over 55% in size
Outline: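 Cytotoxicity counter screen in PPARg-bla HEK293H cells, same wells as reporter assay. Compounds plus 50 nM rosiglitazone (final) for 17 h at 37 C, then viability read by CellTiter-Glo luminescence.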

[8] = qHTS assay for small molecule agonists of the antioxidant response element (ARE) signaling pathway (AID 743202; active = well fitted activation curve with a large enough effect in the signal ratio in the repeat runs, not every such curve was filed as active; inconclusive = weak or mixed curves, or effect the other way; inactive = no such curve, though single readings can be large or run the other way; the % refers to the signal ratio); settings: HepG2 ARE-bla reporter, beta-lactamase FRET, 16 h; activation: at 73.3 µM (top of the series) unless noted
Outline: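 ARE-bla HepG2 cells (beta-lactamase reporter under the antioxidant response element), plated 5 hours, then exposed to compounds 16 hours at 37 C. LiveBLAzer B/G FRET substrate added for 2 hours at room temperature; fluorescence intensity read.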

[9] = qHTS assay to identify small molecule agonists of the peroxisome proliferator-activated receptor delta (PPARd) signaling pathway - cell viability counter screen (AID 743211); settings: PPARd-bla HEK293H viability, CellTiter-Glo luminescence, 17 h; activity change, negative = cytotoxicity: at 62.6 µM (top of the series) unless noted; note: nearly all actives have a fitted effect of over 55% in size
Outline: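 PPARd-bla HEK293H cells (UAS-beta-lactamase reporter) were treated with compounds for 17 h at 37 C. Viability was then read in the same wells by CellTiter-Glo luminescence after 30 min at room temperature.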

[10] = molecular target: Peroxisome proliferator-activated receptor delta (Homo sapiens) (UniProt Q03181); test: qHTS assay to identify small molecule agonists of the peroxisome proliferator-activated receptor delta (PPARd) signaling pathway (AID 743212; calls by dose curve); settings: HEK293H PPARd-UAS-bla, beta-lactamase FRET ratio, 17 h; activation: at 62.6 µM (top of the series) unless noted
Sequence of UniProt Q03181 (Q03181 whole entry, looked up): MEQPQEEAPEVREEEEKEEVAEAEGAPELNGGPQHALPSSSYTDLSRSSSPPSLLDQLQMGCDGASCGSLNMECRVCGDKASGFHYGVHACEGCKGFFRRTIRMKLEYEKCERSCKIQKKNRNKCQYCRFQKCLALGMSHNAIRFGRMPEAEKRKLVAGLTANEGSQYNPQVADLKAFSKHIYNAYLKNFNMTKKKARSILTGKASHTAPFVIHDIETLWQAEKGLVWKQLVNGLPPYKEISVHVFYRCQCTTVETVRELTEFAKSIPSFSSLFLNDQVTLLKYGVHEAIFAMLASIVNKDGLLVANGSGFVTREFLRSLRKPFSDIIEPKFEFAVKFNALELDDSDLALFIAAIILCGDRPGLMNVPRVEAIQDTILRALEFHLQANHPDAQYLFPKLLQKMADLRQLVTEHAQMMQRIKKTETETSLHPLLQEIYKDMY
Outline: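 GeneBLAzer UAS-bla HEK293H cells carrying a PPARδ construct were exposed to compounds at 37 °C. Beta-lactamase activity was read by FRET fluorescence after 2 h at room temperature with LiveBLAzer B/G substrate.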

[11] = molecular target: Peroxisome proliferator-activated receptor delta (Homo sapiens) (UniProt Q03181); test: qHTS assay to identify small molecule antagonists of the peroxisome proliferator-activated receptor delta (PPARd) signaling pathway (AID 743215; active = well fitted inhibition curve with a large enough effect in the signal ratio in the repeat runs, not every such curve was filed as active; inconclusive = weak or mixed curves, or effect the other way; inactive = no such curve, though single readings can be large or run the other way; the % refers to the signal ratio); settings: HEK293H PPARd-UAS-bla, beta-lactamase FRET ratio, antagonist, 17 h; ratio activity, negative = inhibition: at 62 µM (top of the series) unless noted
Outline: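 Antagonist-mode beta-lactamase reporter screen: HEK293H cells with UAS-bla under PPARd control, stimulated by 300 nM L165041 (final) alongside test compound for 17 h at 37 C, then FRET fluorescence after 2 h substrate incubation.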

[12] = molecular target: Vitamin D3 receptor (Homo sapiens) (UniProt P11473); test: qHTS assay to identify small molecule agonists of the vitamin D receptor (VDR) signaling pathway (AID 743222; calls by dose curve); settings: HEK293T VDR-UAS-bla, beta-lactamase FRET ratio, 16 h; activation: at 63.5 µM (top of the series) unless noted
Sequence of UniProt P11473 (P11473 whole entry, looked up): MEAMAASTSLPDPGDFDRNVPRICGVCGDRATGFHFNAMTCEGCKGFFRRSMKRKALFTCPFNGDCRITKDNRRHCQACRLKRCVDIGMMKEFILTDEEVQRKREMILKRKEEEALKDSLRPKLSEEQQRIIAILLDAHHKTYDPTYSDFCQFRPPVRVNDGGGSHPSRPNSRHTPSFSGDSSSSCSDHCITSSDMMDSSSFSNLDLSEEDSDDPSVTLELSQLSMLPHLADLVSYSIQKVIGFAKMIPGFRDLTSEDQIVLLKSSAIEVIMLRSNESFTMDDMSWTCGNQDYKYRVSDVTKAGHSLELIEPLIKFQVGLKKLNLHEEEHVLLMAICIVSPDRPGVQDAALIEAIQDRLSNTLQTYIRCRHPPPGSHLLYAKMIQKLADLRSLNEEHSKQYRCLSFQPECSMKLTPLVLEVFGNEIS
Outline: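 Agonist activity measured in VDR-bla reporter cells. Exposure 16 h, 37C, 5% CO2; detection by B/G FRET substrate, 2 h RT.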

[13] = qHTS assay for small molecule agonists of the antioxidant response element (ARE) signaling pathway - cell viability counter screen (AID 743203; calls by dose curve; note: nearly all actives have a fitted effect of over 55% in size); settings: ARE-bla HepG2 viability, CellTiter-Glo luminescence, 16 h; viability change, negative = cytotoxic: at 73.3 µM (top of the series)
Outline: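 Cells (ARE-bla HepG2, 2,000/well) receive DMSO-dissolved compounds after a 5 hrs rest. Plates incubate 16 hrs at 37C/5% CO2. CellTiter-Glo luminescence is then recorded after 30 min at room temperature.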

[14] = qHTS assay for small molecule activators of the heat shock response signaling pathway - cell viability counter screen (AID 743209); settings: HSE-bla HeLa viability, CellTiter-Glo luminescence, 5 h; activity change, negative = cytotoxicity: at 62.6 µM (top of the series) unless noted; note: nearly all actives have a fitted effect of over 50% in size
Outline: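 Quantitative HTS format, Tox21 10K library. HeLa cells carrying an HSE-driven beta-lactamase reporter were treated 5 h at 37 C, then assessed for viability by CellTiter-Glo luminescence.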

[15] = qHTS assay for small molecule activators of the heat shock response signaling pathway (AID 743210; active = well fitted activation curve with a large enough effect in the signal ratio in the repeat runs, with a control signal flat, not every such curve was filed as active; inconclusive = weak or mixed curves; the % refers to the signal ratio); settings: HeLa HSE-bla reporter, beta-lactamase ratio, 5 h; activation: at 62.6 µM (top of the series) unless noted
Outline: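 HSE-bla HeLa cells (beta-lactamase reporter under heat shock response elements), plated overnight, then exposed to compounds 5 h at 37 C; LiveBLAzer B/G FRET substrate added, 2.5 h at room temperature, fluorescence intensity read.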

[16] = qHTS assay to identify small molecule antagonists of the peroxisome proliferator-activated receptor delta (PPARd) signaling pathway - cell viability counter screen (AID 743213); settings: PPARd-bla HEK293H viability, CellTiter-Glo luminescence, 17 h; viability change, negative = cytotoxic: at 62 µM (top of the series) unless noted; note: nearly all actives have a fitted effect of over 50% in size
Outline: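 Agonist-stimulated (L165041, 300 nM final) HEK293H PPARd UAS-bla cells are exposed to compounds for 17 h at 37 C, and ATP-based luminescence (CellTiter-Glo) from the same wells reports cytotoxicity.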

[17] = molecular target: Bile acid receptor (Homo sapiens) (UniProt Q96RI1); test: qHTS assay to identify small molecule antagonists of the farnesoid-X-receptor (FXR) signaling pathway (AID 743217; active = well fitted inhibition curve with a large enough effect in the signal ratio in the repeat runs, not every such curve was filed as active; inconclusive = weak or mixed curves, or effect the other way; inactive = no such curve, though single readings can be large or run the other way; the % refers to the signal ratio); settings: HEK293T FXR-UAS-bla, beta-lactamase ratio, CDCA-stimulated, 16 h; activity change, negative = inhibition: at 62.6 µM (top of the series) unless noted
Outline: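 Beta-lactamase reporter under UAS control in HEK 293T cells; compound exposure 16 h at 37 °C in the presence of chenodeoxycholic acid (50 uM final); signal from B/G FRET substrate after 2 h at room temperature.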

[18] = molecular target: Vitamin D3 receptor (Homo sapiens) (UniProt P11473); test: qHTS assay to identify small molecule antagonists of the vitamin D receptor (VDR) signaling pathway (AID 743223; active = well fitted inhibition curve with a large enough effect in the signal ratio in the repeat runs, not every such curve was filed as active; inconclusive = weak or mixed curves, or effect the other way; inactive = no such curve, though single readings can be large or run the other way; the % refers to the signal ratio); settings: VDR-UAS-bla HEK293T, beta-lactamase FRET ratio, 16 h; activity change, negative = inhibition: at 61 µM (top of the series) unless noted
Outline: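 VDR-bla cells were plated, incubated 4 h at 37C, then given compound and 1alpha,25-dihydroxyvitamin D3 (3 nM final). After 16 h at 37C, LiveBLAzer B/G FRET substrate was added for 2 h at room temperature and fluorescence read.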

[19] = qHTS assay to identify small molecule antagonists of the farnesoid-X-receptor (FXR) signaling pathway - cell viability counter screen (AID 743221; active = well fitted cell-killing curve with a large enough effect in the repeat runs, not every such curve was filed as active; inconclusive = weak or mixed curves, or effect the other way; inactive = no such curve, though single readings can be large or run the other way; note: nearly all actives have a fitted effect of over 50% in size); settings: FXR-bla HEK293T viability, CellTiter-Glo luminescence, 16 h; activity change, negative = cytotoxicity: at 62.6 µM (top of the series) unless noted
Outline: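 FXR-UAS-bla HEK 293T cells were treated with test compounds plus chenodeoxycholic acid (50 uM final) for 16 h at 37 C. Cell viability in the same wells was then read as CellTiter-Glo luminescence after 30 min at room temperature.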

[20] = qHTS assay to identify small molecule agonists of the vitamin D receptor (VDR) signaling pathway - cell viability counter screen (AID 743224); settings: VDR-bla HEK293T viability, CellTiter-Glo luminescence, 16 h; activity change, negative = cytotoxicity: at 62.6 µM (top of the series); note: nearly all actives have a fitted effect of over 50% in size
Outline: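 VDR-bla cell line, quantitative HTS format; 16 h compound incubation (37C, 5% CO2); ATP-based CellTiter-Glo luminescence measured in the reporter assay wells.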
Potency is the fitted concentration of half-maximal effect; tags give direction and shape of the fitted curve or compound fluorescence and quenching.

Nc1cc(=O)[nH]c(N)n1
Potency [1]: inactive
Potency [2]: inactive
Potency [3]: inactive
Potency [4]: inconclusive: 1.5 µM [rising, partial curve, poor fit]
Potency [5]: inactive

COc1cc(C(=O)NS(=O)(=O)c2ccccc2C)ccc1Cc1cn(C)c2ccc(NC(=O)OC3CCCC3)cc12
Potency [1]: active: 26.6 µM
Potency [6]: active: 0.169 µM
Potency [3]: inconclusive: 23.7 µM
Potency [7]: inconclusive: 29.8 µM [cytotoxic, single point]
Potency [8]: active: 29.8 µM
Potency [9]: inconclusive: 33.5 µM [cytotoxic, single point]
Potency [10]: inconclusive: 33.5 µM
ratio activity, negative = inhibition [11]: inconclusive: 23.3%
Potency [4]: inconclusive: 10.6 µM [cytotoxic, partial curve]
Potency [12]: inconclusive: 6.68 µM [rising, partial curve]

Cc1cccc(OCCOc2cccc(C)c2)c1
Potency [1]: inconclusive: 18.3 µM [activator, partial curve, poor fit]

O=C(Nc1ccc(Cl)c(Cl)c1)c1cc(Cl)cc(Cl)c1O
Potency [1]: active: 0.109 µM
Potency [6]: inconclusive: 49 µM [activator]
Potency [3]: inconclusive: 4.36 µM [full curve]
Potency [7]: active: 0.49 µM
Potency [8]: inconclusive: 5.45 µM [rising, full curve]
Potency [13]: active: 24.3 µM
Potency [14]: inconclusive: 490 nM [cytotoxic, full curve]
Potency [15]: inconclusive: 3.6 µM
activation [10]: inconclusive: 13.9%
Potency [16]: active: 11 µM
Potency [11]: inconclusive: 24.5 µM [rising, full curve, poor fit]
Potency [17]: inconclusive: 8.71 µM [rising, full curve]
Potency [4]: active: 3.89 µM
Potency [5]: inconclusive: 4.36 µM [fluorescent, full curve]
Potency [12]: inconclusive: 43.6 µM [fluorescent, partial curve, poor fit]
Potency [18]: inconclusive: 21.9 µM [rising, partial curve, poor fit]

CCCOC(=O)c1ccc(O)cc1
Potency [1]: active: 23 µM
Potency [2]: inconclusive: 54.5 µM [phenotype inactive, partial curve, poor fit]
Potency [3]: inconclusive: 54.9 µM
Potency [7]: inconclusive: 2.45 µM [cytotoxic, partial curve, poor fit]
Potency [8]: active: 17.2 µM
Potency [9]: inconclusive: 0.138 µM [cytotoxic, full curve, poor fit]
Potency [16]: inconclusive: 3.47 µM [cytotoxic, full curve, poor fit]
activity change, negative = inhibition [17]: inconclusive: -12.3% [at 81.1 µM]
Potency [4]: inconclusive: 0.0014 µM [rising, full curve, poor fit]
Potency [5]: inconclusive: 2.17 µM [rising, partial curve]
Potency [19]: inconclusive: 61.6 µM [phenotype inactive, single point]
Potency [12]: inconclusive: 61.7 µM [rising, single point]
Potency [18]: inconclusive: 11 µM [inhibitor, full curve]
Potency [20]: inconclusive: 6.92 µM [cytotoxic, partial curve, poor fit]

CN1C(=O)N(c2ccccc2Br)Cc2cnc(Nc3ccc4c(c3)OCC(CO)O4)nc21 (stereo not given)
Potency [1]: inconclusive: 1.72 µM [activator, full curve, poor fit]
Potency [6]: inconclusive: 4.36 µM [cytotoxic, partial curve, poor fit]
Potency [3]: inconclusive: 49 µM [rising, partial curve]
Potency [7]: active: 49 µM
Potency [8]: inconclusive: 13.7 µM [rising, partial curve]
Potency [13]: inconclusive: 48.6 µM [cytotoxic, single point]
Potency [15]: inconclusive: 19.5 µM [rising, full curve, poor fit]
Potency [9]: active: 1.1 µM
Potency [10]: inconclusive: 2.19 µM [falling, full curve, poor fit]
Potency [11]: inconclusive: 24.5 µM
Potency [17]: inconclusive: 54.9 µM [rising, single point]
Potency [5]: inconclusive: 0.692 µM [falling, full curve, poor fit]
Potency [19]: inconclusive: 8.71 µM [falling, partial curve]
Potency [18]: active: 13.8 µM
